What all share (test): Viability of human cancer cell lines after 72 h of drug (GDSC screen)
Compound in one test: O=C(c1ccc(C(=O)N2CCC(N3CCCC3)CC2)c(Nc2ccccc2)c1)N1CCC(N2CCCC2)CC1 [UNC1215]
Particulars: top dose 1 µM; top dose inferred. As for the experimental part:
(§1)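 Human cancer cell lines in 384-well plates, medium with 10% serum, drug for 72 h over a 256-fold dose range (nine 2-fold or five 4-fold steps up to the top dose). Adherent lines were fixed and stained with the nucleic acid dye Syto60, suspension lines read with resazurin; signal relative to control wells, capped at 0 and 100%. One two-parameter sigmoid per drug and line, fitted in a mixed model over all curves with the slope shared within a line.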

Compound in a further test: CCc1cc(-c2n[nH]c(C)c2-c2ccc3c(c2)OCCO3)c(O)cc1O [CCT018159]
The following applies: top dose 10 µM; top dose inferred. As for the experimental part: as §1

Compound in another test: Cc1cnc(Nc2ccc(OCCN3CCCC3)cc2)nc1Nc1cccc(S(=O)(=O)NC(C)(C)C)c1 [TG101348]
Particulars: top dose 10.24 µM. As for the experimental part: as §1

Compound in the next test: COC(=O)CNC(=O)C(=O)OC [Dimethyloxalylglycine]
Particulars: top dose 4000 µM; top dose inferred. As to the method: as §1

Compound in another test: CN(C)Cc1cccc(N=C(c2ccccc2)c2c(O)[nH]c3cc(C(=O)N(C)C)ccc23)c1 [BIX02189]
Particulars: top dose 20 µM; top dose inferred. As to the method: as §1

Compound in the next test: C=CCNC1=C2C[C@@H](C)C[C@H](OC)[C@H](O)[C@@H](C)/C=C(\C)[C@H](OC(N)=O)[C@@H](OC)/C=C\C=C(/C)C(=O)NC(=CC1=O)C2=O [17-AAG]
The following applies: top dose 1 µM. As to the method:
as §1

Compound in a further test: Cc1cnc(Nc2ccc(F)cc2Cl)nc1-c1c[nH]c(C(=O)N[C@H](CO)c2cccc(Cl)c2)c1 [VX-11e]
The following applies: top dose 5.12 µM; top dose inferred. As to the method: as §1

Compound in the next test: CS(=O)(=O)c1ccc(C(=O)Nc2ccc(Cl)c(-c3ccccn3)c2)c(Cl)c1 [Vismodegib]
The following applies: top dose 10 µM; top dose inferred. As to the method: as §1

Compound in the next test: COc1cccc2cc(-c3nc([C@H]4CC[C@H](C(=O)O)CC4)n4ncnc(N)c34)[nH]c12 [OSI-027]
The following applies: top dose 20 µM. As to the method: as §1

Compound in the next test: COc1cccc2c1C(=O)c1c(O)c3c(c(O)c1C2=O)C[C@@](O)(C(=O)CO)C[C@@H]3O[C@H]1C[C@H](N)[C@H](O)[C@H](C)O1 [Doxorubicin]
The following applies: top dose 1.024 µM. As for the experimental part: as §1

The IC50 comes from the fitted curve, where viability falls to half of the control; where the fit passes the top or lowest dose, that dose stands as a limit. AUC sums up the same curve from the lowest dose to the 256-fold higher top dose: 1 means no effect, lower means more sensitive. For some of these results: A top dose marked as inferred comes from the curve model; the source does not state it.

One may read the IC50 as the concentration that inhibits the measured activity by half.

Consider Saos-2 (osteosarcoma, adherent), for which the AUC stood at 0.978 in the test with UNC1215; 0.928 with CCT018159; 0.962 with TG101348; 0.475 with Dimethyloxalylglycine; 0.981 in the test with BIX02189; 0.833 with 17-AAG. Also, the AUC with VX-11e worked out at 0.981; in the test with Vismodegib, 0.964; with OSI-027 it was 0.947; in the test with Doxorubicin it was 0.686. In addition, the IC50 with UNC1215 is more than 1 µM; with CCT018159, more than 10 µM; with TG101348, more than 10.2 µM; in the test with Dimethyloxalylglycine, 208 µM; in the test with BIX02189, more than 20 µM; with 17-AAG it was more than 1 µM. The IC50 in the test with VX-11e is more than 5.12 µM; with Vismodegib, more than 10 µM; with OSI-027, more than 20 µM; with Doxorubicin, 0.268 µM.
As to “NCI-H1869 (lung squamous cell carcinoma, adherent)”, the AUC turned out to be 0.982 in the test with UNC1215; 0.94 in the test with CCT018159; 0.831 with TG101348; 0.577 with Dimethyloxalylglycine; 0.944 with BIX02189; 0.632 with 17-AAG. The AUC with VX-11e came to 0.96; with Vismodegib, 0.985; in the test with OSI-027, 0.783; with Doxorubicin it was 0.904. Besides, the IC50 with UNC1215 was more than 1 µM; in the test with CCT018159 it was more than 10 µM; in the test with TG101348, 7.67 µM; with Dimethyloxalylglycine, 417 µM; with BIX02189, more than 20 µM; with 17-AAG, 0.153 µM. For the same cell line, the IC50 was more than 5.12 µM with VX-11e, more than 10 µM in the test with Vismodegib, 9.58 µM with OSI-027 and more than 1.02 µM with Doxorubicin.
Take MC116 (B-cell lymphoma, suspension): the AUC was determined as 0.997 with UNC1215; 0.999 in the test with CCT018159; 0.929 with TG101348; 0.448 with Dimethyloxalylglycine; 0.987 in the test with BIX02189; 0.999 in the test with 17-AAG. In addition, the AUC is 0.979 with VX-11e, 0.999 in the test with Vismodegib, 0.285 with OSI-027 and 0.852 in the test with Doxorubicin. The IC50 is more than 1 µM with UNC1215; more than 10 µM with CCT018159; 7.33 µM with TG101348; 187 µM with Dimethyloxalylglycine; more than 20 µM with BIX02189; more than 1 µM with 17-AAG. The IC50 with VX-11e is more than 5.12 µM; in the test with Vismodegib, more than 10 µM; with OSI-027, 0.38 µM; in the test with Doxorubicin it was 0.456 µM.
Take FU97 (stomach, adherent): the AUC with UNC1215 amounted to 0.984; with CCT018159 it was 0.901; with TG101348, 0.872; with Dimethyloxalylglycine, 0.496; with BIX02189, 0.955; with 17-AAG, 0.245. The AUC with VX-11e was determined as 0.96; with Vismodegib, 0.958; with OSI-027 it was 0.65; with Doxorubicin, 0.588. The IC50 with UNC1215 was more than 1 µM; with CCT018159, more than 10 µM; in the test with TG101348 it was 10.2 µM; with Dimethyloxalylglycine, 244 µM; with BIX02189, more than 20 µM; with 17-AAG, 0.0113 µM. The IC50 is more than 5.12 µM with VX-11e, more than 10 µM with Vismodegib, 3.31 µM with OSI-027 and 0.113 µM with Doxorubicin.
Turning to SUP-HD1 (Hodgkin lymphoma, suspension), the AUC in the test with UNC1215 is 0.982; in the test with CCT018159 it was 0.333; with TG101348, 0.467; with Dimethyloxalylglycine it was 0.499; with BIX02189, 0.864; with 17-AAG, 0.798. Besides, the AUC with VX-11e was determined as 0.969; in the test with Vismodegib it was 0.961; in the test with OSI-027, 0.386; in the test with Doxorubicin, 0.583. Further, the 50% inhibitory concentration (IC50) in the test with UNC1215 was more than 1 µM; in the test with CCT018159 it was 0.219 µM; with TG101348, 0.521 µM; with Dimethyloxalylglycine it was 249 µM; with BIX02189, 16.1 µM; with 17-AAG, 0.449 µM. Besides, the IC50 with VX-11e is more than 5.12 µM; in the test with Vismodegib it was more than 10 µM; with OSI-027, 0.619 µM; with Doxorubicin, 0.107 µM.
For OAW-42 (ovary, adherent), the AUC came to 0.984 with UNC1215; 0.926 with CCT018159; 0.873 with TG101348; 0.581 in the test with Dimethyloxalylglycine; 0.98 with BIX02189; 0.886 with 17-AAG. Besides, the AUC with VX-11e amounted to 0.983; in the test with Vismodegib, 0.986; with OSI-027, 0.5; in the test with Doxorubicin, 0.62. Further, the IC50 in the test with UNC1215 was more than 1 µM; in the test with CCT018159, more than 10 µM; in the test with TG101348, more than 10.2 µM; with BIX02189, more than 20 µM; with 17-AAG it was more than 1 µM; with VX-11e it was more than 5.12 µM. Also, the IC50 was more than 10 µM in the test with Vismodegib, 1.25 µM with OSI-027 and 0.141 µM with Doxorubicin.
On to Hs633T (fibrosarcoma, adherent), for which the AUC stood at 0.991 with UNC1215; 0.858 in the test with CCT018159; 0.867 in the test with TG101348; 0.416 with Dimethyloxalylglycine; 0.951 with BIX02189; 0.936 with 17-AAG. Also, the AUC worked out at 0.873 in the test with VX-11e, 0.968 in the test with Vismodegib, 0.288 with OSI-027 and 0.312 with Doxorubicin. Moreover, the IC50 was more than 1 µM in the test with UNC1215; 5.94 µM with CCT018159; 6.57 µM in the test with TG101348; 154 µM in the test with Dimethyloxalylglycine; more than 20 µM in the test with BIX02189; more than 1 µM with 17-AAG. Further, the IC50 was 3.45 µM in the test with VX-11e, more than 10 µM with Vismodegib, 0.36 µM in the test with OSI-027 and 0.0214 µM with Doxorubicin.

The values above are taken from the supplement of paper PMC4967469.
